Among all 360,000 compounds or so, about 7,500 (2.1%) were called active. The inconclusive results got no clear call from the source; some entries with a clear call stand among them for comparison. Calls come from the whole dose curve; as a rule, active = well fitted cell-killing curve with a large enough effect; inconclusive = small, poorly fitted or top-dose-only effect, or effect the other way, or another doubt; inactive = no such curve, though single readings can be large or run the other way. Potencies of inconclusive entries are left out as doubtful fits.
Assay: qHTS for induction of synthetic lethality in tumor cells producing 2HG: qHTS for the HT-1080-IDH1KD cell line;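 for activity, negative = toxicity: 0% = DMSO wells and -100% = cell-free medium wells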
Conditions: HT-1080 IDH1 knockdown viability, ATP luminescence, 48 h; activity, negative = toxicity: at 46.1 µM (top of the series) unless noted
Outline: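 In this qHTS, HT-1080 cells depleted of IDH1 are exposed for 48 h at 37 °C to compound titrations. Toxicity is scored from CellTiter-Glo luminescence, with DMSO as full viability and medium alone as none.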
Potency is the fitted concentration of half-maximal effect; tags give direction and shape of the fitted curve.

Compound	Potency	activity, negative = toxicity
CCOC(=O)Cc1ncccc1C(=O)Nc1ccc(OC(F)(F)F)cc1	active: 20.6 µM	–
Cc1cccc(CN2C(=O)N/C(=C/c3ccc(C)s3)C2=O)c1	inconclusive [cytotoxic, partial curve]	–
C=C(C)c1cccc(C(C)(C)NC(=O)Nn2cnnc2)c1	–	inactive: 7.19% [at 9.24 µM]
Cc1ccccc1N=C/C=C1/C=C(c2ccccc2)OC(C)(C)O1	inconclusive [cytotoxic, single point]	–
CC(C)C[C@@H](CN1CCC[C@@H]1CN1C(=S)NC[C@@H]1Cc1ccc(O)cc1)N1C[C@H](Cc2ccc(O)cc2)N(CC2CCCCC2)C1=S	inconclusive [cytotoxic, single point]	–
CCOC(OCC)c1cn(Cc2ccc(C(=O)c3ccccc3)cc2)nn1	inconclusive [cytotoxic, partial curve]	–
CCN(CC)C(=O)C(c1ccccc1)S(=O)(=O)N1CCOCC1 (configuration not stated)	–	inconclusive: -10.2% [cytotoxic]
Cc1ccc(S(=O)(=O)N2CCCCC2CCNC(=O)C(=O)NCc2cccnc2)cc1 (configuration not stated)	inconclusive [cytotoxic, single point]	–
COc1ccc2[nH]c(=O)c(CN(Cc3cccs3)Cc3nnnn3C(C)(C)C)cc2c1	inconclusive [cytotoxic, single point]	–
O=C(CSc1nc(Cc2ccccc2)nc2ccccc12)Nc1ccc2c(c1)OCCO2	inconclusive [cytotoxic, single point]	–
COC(=O)c1cc(C)[nH]c2c(C)cc3nc4ccccc4c3c12	inconclusive [cytotoxic, partial curve]	–
C=CCn1c(=O)c(C(=O)Nc2ncccc2C)c(O)c2ccccc21	inconclusive [cytotoxic, single point]	–
CCCN(Cc1cc2cc(OC)ccc2[nH]c1=O)C(=O)c1ccncc1	inconclusive [cytotoxic, single point]	–
CSc1cccc(CN2CCC(Oc3ccc(C(=O)N4CCCCC4)cc3)CC2)c1	inconclusive [cytotoxic, single point]	–
C=CCNC(=O)C1CC(=O)N(c2ccc(OCC(=O)Nc3ccc(Cl)c(C(F)(F)F)c3)cc2)C1 (configuration not stated)	inconclusive [cytotoxic, single point]	–
C=CCN=c1scc(-c2ccc3c(c2)NC(=O)CO3)n1/N=C(\C)c1ccccn1	inconclusive [cytotoxic, partial curve]	–
CC1C(c2ccccc2)OCCN1C(=S)NC(=O)c1ccccc1 (configuration not stated)	inactive	–
O=C(N/N=C/c1c(O)n(Cc2ccco2)c(=O)[nH]c1=O)c1ccccc1	inactive	–
Cc1ccc(C)c(SCC(=O)NCC(c2ccco2)N2CCCCC2)c1 (configuration not stated)	inactive	–
CCc1ccc(/C=C2/Sc3ccccc3N(CC(=O)NCC3CCCO3)C2=O)cc1 (configuration not stated)	inconclusive [cytotoxic, single point]	–
Cc1cccc2c1N(CCOc1ccc(C(C)(C)C)cc1)C(=O)C2=O	inconclusive [cytotoxic, single point]	–
CCC(c1nnnn1-c1c(C)cccc1C)N1CCCN(Cc2ccc(F)cc2)CC1 (configuration not stated)	inconclusive [cytotoxic, single point]	–
Cc1ccc2nc(C)cc(Nc3ccc([N+](=O)[O-])cc3)c2c1	inconclusive [cytotoxic, partial curve]	–

Compound	Potency	activity, negative = toxicity
CC1CSC(N(C(=O)c2ccc(S(C)(=O)=O)cc2)c2ccc(Cl)cc2)=N1 (configuration not stated)	inconclusive [cytotoxic, single point]	–
CCOc1cccc2c1OC(c1cc(OC)c(OC)c(OC)c1)N1N=C(c3ccc(C)o3)CC21 (configuration not stated)	inconclusive [cytotoxic, single point]	–
O=C(c1ccc(Cl)cc1)C1CCCN(Cc2cccn2-c2ccccn2)C1 (configuration not stated)	active: 23.1 µM	–
Cc1ccc2nc(-c3ccccc3)cn2c1	active: 11.6 µM	–
O=C(NC1CCCC1)C(c1ccncc1)N(C(=O)c1csnn1)c1ccc(Cl)cc1 (configuration not stated)	inactive	–
C/C(=C/c1oc2ccc(O)cc2c1[N+](=O)[O-])N(C)C	inconclusive [cytotoxic, single point]	–
COc1ccccc1C(=O)Nc1ccc2c(c1)CCCN2C(=O)c1cccs1	inconclusive [cytotoxic, single point]	–
CCCn1c(SCC(=O)N2N=C3/C(=C/c4ccc(OC)cc4)CCCC3C2c2ccc(OC)cc2)n[nH]c1=O (configuration not stated)	active: 11.6 µM	–
COc1cc(C=C2C(=O)C=CC2=O)ccc1O	active: 23.1 µM	–
Cc1ccc(-c2csc(NCCc3nc4cc(Cl)c(Cl)cc4n3CCOCCO)n2)cc1	inconclusive [cytotoxic, single point]	–
COc1cccc(N2C(=O)CC(Sc3nc(C)cc(C)n3)C2=O)c1 (configuration not stated)	–	inconclusive: 32.3%
CCO[C@@H]1OC(C(=O)NCc2nc3ccccc3[nH]2)=C[C@H](c2cn(C(C)=O)c3ccccc23)[C@H]1CCCO	inactive	–
Cc1ccc(/C=C2/SC(=S)N(CCC(=O)NCCCN3CCOCC3)C2=O)cc1	inconclusive [cytotoxic, partial curve]	–
CCc1ccc(OCC(=O)N/N=C(\C)c2ccc(O)cc2O)cc1	inconclusive [cytotoxic, single point]	–
C[C@H]1CN([C@@H](C)CO)C(=O)c2cccc(NC(=O)Nc3ccc(C(F)(F)F)cc3)c2O[C@@H]1CN(C)C(=O)Nc1ccc(F)cc1	inconclusive [cytotoxic, single point]	–
Cc1ccc(C(=O)O)cc1N1C(=O)c2cccc3c([N+](=O)[O-])ccc(c23)C1=O	inconclusive [cytotoxic, single point]	–
CCS(=O)(=O)N1Cc2cc(C(=O)NCCOC)nc(-c3cccc(-c4ccncc4)c3)c2[C@@H]1CCO	inactive	–
COc1ccc(-n2c(SCC(=O)Nc3ccc(C(N)=O)cc3)nc3c([nH]c4ccccc43)c2=O)cc1OC	inconclusive [cytotoxic, single point]	–
Cc1ccccc1N(C(=O)Cc1c[nH]c2ccccc12)C(C(=O)NC1CCCCC1)c1ccco1 (configuration not stated)	inconclusive [cytotoxic, single point]	–
COc1cc(OC)c(/C=C2\C(=O)Nc3ccccc32)c(OC)c1	active: 2.59 µM	–
COc1ccc(/C=C2/C(=O)ON=C2c2ccccc2)cc1OC	inconclusive [cytotoxic, single point]	–
COC(=O)c1ccc(-c2nc3ccccc3[nH]2)cc1	inconclusive [cytotoxic, single point]	–
C/C(=N\Nc1nc2ccccc2nc1C)c1ccccc1O	inconclusive [cytotoxic, partial curve]	–

Compound	Potency	activity, negative = toxicity
O=C(c1ccc2nc(Cc3ccccc3F)oc2c1)N1CC[C@H](O)C1	inconclusive [rising, single point]	–
COc1ccc(/C=N/Nc2nc3ccccc3[nH]2)c(OC)c1OC	inconclusive [cytotoxic, single point]	–
COc1ccc(C(=O)/C=C/c2ccc(OC)c(O)c2)c(F)c1	inconclusive [cytotoxic, single point]	–
COc1ccc(CN2C[C@@H](CO)O[C@@H](n3cnc4c(N5CCN(CCO)CC5)ncnc43)C2)cc1	inconclusive [rising, single point]	–
CCCc1cc(C(N)=O)c(NC(=O)c2cc(C)on2)s1	–	inconclusive: 18.3%
CCN(CC)c1nc(N)c2c(N)n(-c3ccccc3C)c(=S)c(C#N)c2c1C#N	inactive	–
COc1cc2c(cc1NC(=O)C1CCCO1)oc1ccccc12 (configuration not stated)	inconclusive [cytotoxic, single point]	–
COc1ccc(Br)cc1C(=O)NC(=S)Nc1cc(-c2nc3ccccc3[nH]2)ccc1C	inconclusive [cytotoxic, partial curve]	–
O=c1c(=Nc2ccccc2O)c(=O)c2ccccc12	inconclusive [cytotoxic, partial curve]	–
COC(=O)c1ccc(N(C(=O)CNC(=O)c2ccco2)C(C(=O)NC2CCCC2)c2ccco2)cc1 (configuration not stated)	inactive	–
CC(C)c1nc2sc3c(=O)n(N)cnc3c2c2c1COC(C)(C)C2	inactive	–
CCc1nc2c(OCc3cc(Cl)cc(Cl)c3)cccn2c1N(C)C(=O)c1ccccc1F	inconclusive [cytotoxic, single point]	–
Cc1ccc(-c2n[nH]c(=O)c3ccccc23)cc1S(=O)(=O)Nc1ccccc1	active: 20.6 µM	–
O=C(CCc1c[nH]c2ccccc12)Nc1ncccc1O	inactive	–
NS(=O)(=O)c1ccc(NC(=O)c2c(Cl)cccc2Cl)cc1	inconclusive [rising, single point]	–
CN1CCC2CC1c1cc(-c3ccc(C(F)(F)F)cc3)ccc12 (configuration not stated)	inactive	–
COc1cc2cc(CN(Cc3cccs3)C(=S)Nc3ccc(C)cc3)c(=O)[nH]c2cc1OC	inactive	–
CCCc1cc(NCCCn2ccnc2)n2nc(C)c(-c3ccccc3)c2n1	active: 13 µM	–
COc1cccc(-n2c(-c3ccco3)nc3nc4ccccc4nc32)c1	inactive	–
COc1cc(-c2coc3c(C(=O)NCc4cccc(Cl)c4)cccc23)ccc1O	active: 23.1 µM	–
CCCOc1ccc(NC(=O)CC2C(=O)N(C)C(=S)N2Cc2ccc3c(c2)OCO3)cc1 (configuration not stated)	inconclusive [cytotoxic, partial curve]	–
